From publication PMC4336329 (PLoS ONE, 2015)
The campaign covered roughly 310,000 compounds. About 2,200 (0.71%) showed an effect of 50% or more. The effect is printed as a negative number. The list shows a part of the results.

target: human ether-à-go-go-related gene (hERG) potassium channel (human, UniProt Q12809); test: primary screen, population patch clamp on CHO cells stably expressing hERG
Sequence (Q12809 whole entry, looked up): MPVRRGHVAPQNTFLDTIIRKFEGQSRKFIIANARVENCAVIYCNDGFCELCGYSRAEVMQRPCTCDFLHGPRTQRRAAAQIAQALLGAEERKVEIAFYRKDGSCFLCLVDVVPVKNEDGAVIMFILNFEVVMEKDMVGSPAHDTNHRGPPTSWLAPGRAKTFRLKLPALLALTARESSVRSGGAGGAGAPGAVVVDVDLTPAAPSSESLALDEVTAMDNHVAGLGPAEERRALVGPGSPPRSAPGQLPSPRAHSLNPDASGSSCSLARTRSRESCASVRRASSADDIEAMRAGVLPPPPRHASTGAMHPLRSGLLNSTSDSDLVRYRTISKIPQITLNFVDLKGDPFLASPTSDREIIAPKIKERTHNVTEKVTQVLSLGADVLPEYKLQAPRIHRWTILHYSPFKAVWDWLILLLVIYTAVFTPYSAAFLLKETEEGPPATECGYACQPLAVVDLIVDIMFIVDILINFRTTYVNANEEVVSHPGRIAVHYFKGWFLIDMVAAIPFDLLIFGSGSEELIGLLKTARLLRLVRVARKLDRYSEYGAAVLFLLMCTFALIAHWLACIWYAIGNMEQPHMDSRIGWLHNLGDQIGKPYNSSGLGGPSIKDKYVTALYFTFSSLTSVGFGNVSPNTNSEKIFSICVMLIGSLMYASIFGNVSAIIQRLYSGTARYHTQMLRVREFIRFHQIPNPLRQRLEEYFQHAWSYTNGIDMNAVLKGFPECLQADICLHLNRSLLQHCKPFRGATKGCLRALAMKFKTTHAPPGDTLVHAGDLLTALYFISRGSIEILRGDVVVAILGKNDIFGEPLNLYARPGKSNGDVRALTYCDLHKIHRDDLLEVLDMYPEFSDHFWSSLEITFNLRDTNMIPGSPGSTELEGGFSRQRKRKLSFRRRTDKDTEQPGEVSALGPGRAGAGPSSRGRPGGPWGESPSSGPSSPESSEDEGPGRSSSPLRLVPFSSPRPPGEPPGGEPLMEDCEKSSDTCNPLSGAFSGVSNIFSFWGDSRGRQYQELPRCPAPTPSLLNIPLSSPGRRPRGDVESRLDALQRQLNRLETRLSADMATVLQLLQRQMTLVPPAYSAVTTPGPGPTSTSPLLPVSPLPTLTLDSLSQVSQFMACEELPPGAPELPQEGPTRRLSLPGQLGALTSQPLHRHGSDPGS

In order of falling “hERG current change (%, negative = inhibition) at 1uM” value:
1. COc1ccc(-c2nc(NC(C)=O)sc2-c2ccccc2)cc1  26.8%
2. CCN1CCCC1CNC(=O)c1cc(S(N)(=O)=O)ccc1OC (stereo not drawn)  20.8%
3. CCNS(=O)(=O)c1ccc(NC(=S)N2CCc3ccccc32)cc1  19.4%
4. CS(=O)(=O)NNC(=O)c1sccc1OCc1ncc(C(F)(F)F)cc1Cl  17.9%
5. COc1cc(CN2CCC(C(=O)NC3CCCC3)CC2)ccc1O.O=C(O)C(=O)O  17.5%
6. CCCCNC(=S)N(CCN(CC)CC)Cc1cc2cc3c(cc2[nH]c1=O)OCCO3  15.9%
7. COc1ccc([C@@H]2[C@@H]3C(=O)N(C(C)(C)C)C(=O)[C@@H]3[C@]3(Cc4ccc(Cl)cc4)C(=O)N(c4cccc(C)c4)C(=O)N23)cc1  15%
8. CC1CC(C)CN(S(=O)(=O)N2CCCC(C(=O)NCCCN3CCOCC3)C2)C1 (stereo not drawn)  15%
9. O=C(Cc1ccccc1)Oc1cccc(N2C(=O)CCC2=O)c1  14.8%
10. CC(C)CNC(=O)/C=C/C=C/CCCC/C=C/c1ccc2c(c1)OCO2  14.8%
11. COc1ccccc1CNC(=O)CN(C)S(=O)(=O)c1ccc2c(c1)c(=O)n(C)c(=O)n2C  14.7%
12. CCOC(=O)N1CCN(C(=O)CN2C(=O)CC(C)(C)S(=O)(=O)c3ccccc32)CC1  14.7%
13. COc1ccc(/C=C/C(=O)NCCSCc2ccco2)cc1OC  14.5%
14. CCCCCn1nc(C(=O)OCc2nnc(-c3ccccc3)o2)c2ccccc2c1=O  14.4%
15. COCc1ccc(C(=O)N2CCCC(Nc3ccc(C(C)C)cc3)C2)s1 (stereo not drawn)  14.2%
16. Cc1ccc2nc(NC(=O)CS(=O)(=O)Cc3ccccc3)sc2c1  13.8%
17. CCNC(=S)N(CCN(CC)CC)Cc1cc2cc3c(cc2[nH]c1=O)OCCO3  13.8%
18. O=C(CN1C(=O)S/C(=C\c2ccc(O)c([N+](=O)[O-])c2)C1=O)Nc1ccc(N2CCOCC2)cc1  13.6%
19. COc1cccc(NC(=O)c2ccc3c(O)c(S(=O)(=O)c4ccccc4)c(=O)[nH]c3c2)c1  13.3%
20. CC1(C)CC(=O)C2=C(C1)N(c1ccc(F)cc1)C(=O)CC2c1ccccc1 (stereo not drawn)  13.2%
21. CCn1c2ccc(Cl)cc2c2nc3ccccc3nc21  13%
22. COc1ccccc1CN1CCNC(=O)C1CC(=O)NCc1cn(C)nc1C (stereo not drawn)  12.5%
23. C=CCc1ccc2oc(C(=O)OCC)cc(=O)c2c1O  12.2%
24. Cc1ccc(N2C(=O)C3Sc4[nH]c(=O)sc4C(c4ccccc4)C3C2=O)cc1 (stereo not drawn)  12%
25. CN1CCN(C(=O)c2ccc(N(Cc3ccc(Cl)cc3)S(C)(=O)=O)cc2)CC1  11.9%
26. CCOC(=O)c1ccc(NC(=O)CC2COc3ccccc3O2)cc1 (stereo not drawn)  11.9%
27. Fc1ccccc1/C=N/Nc1ncnc2nc[nH]c12  11.4%
28. CCCc1cc(C(=O)Nc2ccccc2C(=O)OC)no1  11.3%
29. Cn1c(=O)n(Cc2ccccc2Cl)c(=O)c2c1[nH]c(=S)n2C  10.8%
30. CN(C)C(CNC(=O)c1cnc(Cl)c(Cl)c1)c1ccccc1 (stereo not drawn)  10.8%
31. O=C(COC(=O)CCC(=O)c1ccc(F)cc1)Nc1ccc(N2CCOCC2)cc1  10.7%
32. C=CCn1c(SCC(=O)Nc2ccccc2OC)nc2c([nH]c3ccccc32)c1=O  10.5%
33. Cc1ccc(C(=O)Nc2nnc(-c3ccco3)o2)cc1  10.4%
34. CC1CCN(c2ccccc2N)CC1  9.79%
35. O=C(NC1CCCc2ccccc21)c1ccc(Cl)nc1 (stereo not drawn)  9.37%
36. CN(CCCC1CCCC1)C(=O)CC1C(=O)NCCN1Cc1ccc(F)cc1 (stereo not drawn)  9.35%
37. Cc1cccc(C)c1NC(=O)CNC(=O)c1ccc(S(=O)(=O)NCc2ccco2)cc1  8.87%
38. CN1CCc2cccc(Cl)c2CC1.Cl  8.79%
39. COc1ccc(OC)c(C(=O)NC(CC(N)=O)c2ccc(N3CCN(c4ccccn4)CC3)c([N+](=O)[O-])c2)c1 (stereo not drawn)  8.49%
40. COCCNC(=O)C(c1ccc(C)cc1)N(Cc1ccccc1)C(=O)CCC(=O)Nc1ccccn1 (stereo not drawn)  8.35%
41. CCC(CC)c1nnc(NC(=O)c2ccc([N+](=O)[O-])cc2)s1  8.05%
42. Cc1cccc(NC(=O)CSc2nc3[nH]ncc3c(=O)[nH]2)c1  7.93%
43. CCOc1ccccc1NS(=O)(=O)c1c(C)[nH]c(C)c1C(=O)N1CCCCC1  7.93%
44. CC1Cc2ccccc2N1C(=O)Cn1nnc(-c2ccccc2NC(=O)C2CCC2)n1 (stereo not drawn)  7.91%
45. COc1ccccc1C(=O)N1CCN=C1SC  7.83%
46. Cc1nc(CS(=O)(=O)c2ccccc2)cc(Sc2ccccc2Cl)n1  7.78%
47. COc1ccccc1NS(=O)(=O)c1cc(N/C(=N\S(=O)(=O)c2ccccc2)c2ccc(F)cc2)ccc1Cl  7.49%
48. CC(C)c1ccc(NC(=O)CSc2n[nH]c(=O)n2-c2ccc3c(c2)OCCO3)cc1  7.34%
49. CCOC(=O)c1c(S(=O)(=O)NCc2cccs2)c(C)n(C)c1C  7.18%
50. COc1nc(NCC2CCCO2)nc(N2CC3CC(C2)c2cccc(=O)n2C3)n1 (stereo not drawn)  6.44%
51. CCOC(=O)c1cnc(COc2ccc(OC)cc2)[nH]c1=O  6.43%
52. COc1ccc(-c2cc(=O)oc3c(C)c(OC(C)C(=O)NCc4ccccn4)ccc23)cc1 (stereo not drawn)  6.43%
53. CC(NCCOCCOc1ccccc1)c1ccccc1 (stereo not drawn)  6.29%
54. O=C(Nc1ccc2nc(-c3ccccc3)oc2c1)c1ccco1  6.22%
55. COCCN(C(=O)CCC(=O)Nc1nccs1)C(C(=O)NC(C)(C)C)c1ccc(F)cc1 (stereo not drawn)  6.09%
56. Cc1ccc(S(=O)(=O)N2CCCCC2)cc1C(=O)NCCC1=CCCCC1  6.03%
57. Cc1cccc(Cl)c1NC(=O)N1CCCN(c2nc3ccc(Cl)cc3s2)CC1  5.09%
58. COc1cccc(NC(=O)CCCCCN2C(=O)[C@@H]3Cc4ccccc4CN3C2=O)c1  4.78%
59. N#Cc1ccccc1NC(=O)c1ccccc1OCC(=O)NCc1ccco1  4.77%
60. O=C(c1cc(Cl)nc2ccccc12)N1CCN(S(=O)(=O)c2ccccc2[N+](=O)[O-])CC1  4.54%
61. CCC(C)NC(=O)c1ccccc1NC(=O)c1ccc(CSc2ccc(C)cc2)cc1 (stereo not drawn)  4.1%
62. CCN(CC)CC(=O)Nc1ccccc1SCC(=O)Nc1ccsc1C(=O)OC  3.73%
63. CC(=O)c1n[nH]nc1NC(=O)c1ccccc1  3.71%
64. Cc1ccccc1Cn1nc(C)c(NC(=O)c2cc3n(n2)C(C(F)F)CC(C(F)F)N3)c1C (stereo not drawn)  3.34%
65. Cc1ccc(CNC(=O)CSc2ccsc2[N+](=O)[O-])cc1  3.28%
66. CCCCOc1cccc(C(=O)NC(=S)Nc2cccc(NC(=O)c3ccccc3Cl)c2)c1  2.46%
67. Cc1cccc(N2CCN(C(=O)C(NS(=O)(=O)c3cccs3)c3ccccc3)CC2)c1C (stereo not drawn)  2.45%
68. NS(=O)(=O)c1ccc(CNC(=O)c2ccccc2SCC(=O)N2CCCC2)cc1  1.87%
69. Clc1cccc(Cl)c1CSc1nnc(CN2CCOCC2)n1-c1ccccc1  1.02%
70. Cc1ccccc1NC(=S)N1CCCC(c2nc3ccccc3[nH]2)C1 (stereo not drawn)  -0.875%
71. COc1cc(Cl)ccc1OCc1cc(C(=O)N(C)CCc2cnn(C)c2)no1  -1.69%
72. O=S1(=O)[C@H]2C[C@@H]3C=C[C@@]2(CN1Cc1ccc(F)cc1)O3  -1.84%
73. CC(=O)N=c1sccn1CC(O)c1ccccc1 (stereo not drawn)  -3.31%
74. CN1CCN(c2nc3cc(C(F)(F)F)ccc3n3cccc23)CC1.O=C(O)/C=C\C(=O)O  -3.43%
75. O=C1CC(c2ccccc2)CC(O)=C1C=NCCCN1CCOCC1 (stereo not drawn)  -4.01%
76. Cc1ccc(-c2nc(P(=O)(c3ccccc3)c3ccccc3)c(N3CCOCC3)o2)cc1  -4.67%
77. COc1ccc(CN(C)C(=O)C2CCN(C(=O)Nc3ccccc3)CC2)cc1  -7.59%
78. CCOC(=O)c1sc(NC(=O)CSc2nnc(-c3ccc(OC)cc3)n2CCOC)nc1C  -8.32%
79. COC(=O)c1ccccc1NC(=O)N1CCN(c2ccc(OC)cc2)CC1  -8.69%
80. COc1cccc(C2CC(c3ccc(NS(C)(=O)=O)cc3)=NN2C(=O)c2ccccc2)c1OC (stereo not drawn)  -8.83%
81. COc1ccc(CCN2CC(C(=O)NCCN3CCCC3=O)CCC2=O)cc1 (stereo not drawn)  -9.36%
82. COc1ccc(C(=O)N2CCC(C(=O)Nc3ccc4c(c3)OCCO4)CC2)cc1  -13.1%
83. COc1ccc(CNCCC(c2ccc(OC)cc2)c2ccccc2OC)cc1 (stereo not drawn)  -29.8%
84. Cc1ccc(CN2CCN(Cc3ccc(-n4cccn4)cc3)CC2CCO)cc1 (stereo not drawn)  -65.5%
